Source: paper PMC4242493
Some of the results follow. The list includes weakly bound sequences.

Biological target: MaxL homodimer (UniProt P61244)
Test: universal protein-binding microarray (PBM)
Settings: PBS-based mixture, 10 nM His-tagged protein dimer, 2% milk, 200 ng/uL BSA, 50 ng/uL salmon testes DNA, 0.02% TX-100; detection with Alexa 488 anti-His …; high values mean tight binding; most listed sequences are background and not binding sites; double strand, one strand shown

UniProt P61244, sequence (P61244 whole entry): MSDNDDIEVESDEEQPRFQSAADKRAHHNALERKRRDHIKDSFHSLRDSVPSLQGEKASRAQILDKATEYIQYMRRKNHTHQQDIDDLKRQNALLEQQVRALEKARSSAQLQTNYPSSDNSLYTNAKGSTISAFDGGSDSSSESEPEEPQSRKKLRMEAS

Sequence	binding signal (normalized occupancy)
ATCGGCCC	0.0713
GAGAAGGC	0.0712
AACCCTGA	0.078
ATAACAGC	0.0824
CTTCCGAC	0.0726
CACAACTC	0.0769
CCTCGACA	0.0815
CCATACAA	0.0832
GTGAGGTA	0.084
ATGTAGGC	0.0776
ACATTCCG	0.0797
ATAACCCA	0.0805
CTCGAAAG	0.0685
AGTATTAT	0.0827
AATACGCG	0.0742
ACCGTCCT	0.0712
TCCTGTCA	0.0719
CTTGTTTA	0.0714
TTAGCCAA	0.0744
CTCACAAG	0.0771
GTCACTCA	0.0715
AAAAGTAC	0.0759
TTGATCAA	0.0795
CCCTACTA	0.079
ACACGAAC	0.0763

Sequence	binding signal (normalized occupancy)
GATGATCC	0.0776
AAAGAGTG	0.0765
CGCCAGAG	0.0665
GCTCAACA	0.0722
ATGTACGC	0.0847
ACCTTTAA	0.0744
AGCACACT	0.0815
ATCGTTAA	0.0796
GCAACCGA	0.0694
ATGAGGCC	0.0811
CGTTAACC	0.0793
GCGAAATA	0.0711
ACACATCC	0.0784
CTAATTAG	0.0738
CTAAGGCA	0.0699
AGCGAAGA	0.0653
GAAGCGCA	0.062
CACGCTAC	0.0972
CCCCGAAA	0.0755
ACAGATAC	0.0793
ATTATGCC	0.0763
GCTGCCCC	0.0738
ATGACACA	0.0829
GCGGTTGA	0.0699
AACTCAGA	0.0759

Sequence	binding signal (normalized occupancy)
AACCGACT	0.0658
CGGAACAC	0.0775
CGGGTGTA	0.079
ACTCATTG	0.0811
GGTGAGTA	0.0795
GCTCATGA	0.0859
AACAACGC	0.0747
GATTTCAC	0.0722
AAAAACTC	0.0696
ATGGTGTA	0.0823
GACAGTCA	0.0721
CCGTTTAG	0.0717
CGCTGGAG	0.0679
AGTCTTTC	0.07
ACATCGGT	0.0702
CAGGGCTC	0.069
GGCGGATA	0.0736
GGGGCGTA	0.0761
TAGCTTGA	0.0684
CCACTGCC	0.073
CCGAATGA	0.0745
GTAGGCGA	0.0743
CTCGCCTC	0.0748
AGCAAGAA	0.0748
ATATGAAA	0.0805

Sequence	binding signal (normalized occupancy)
AGCGCTCC	0.0661
AGGGTTAA	0.0772
CCGCAGTA	0.0693
TCAAAGGA	0.0841
TGGGGGAA	0.0784
ACGACATC	0.078
ACCCGTCG	0.0731
ACAGATCA	0.0837
GTACAAGA	0.0806
ATATGATA	0.0913
ACACTAGC	0.0744
CGTCTGGC	0.0669
GGGGAAGA	0.0844
GTAAATTA	0.0804
AATTGCTC	0.0686
CTTATCTC	0.0761
GACAGATC	0.0746
ATCCAGAC	0.073
TCCCAAAA	0.0719
GAGGCGGA	0.0677
CTTGATCA	0.0784
GACCTGCC	0.0741
AGAAACTA	0.0746
TGAAGGAA	0.0747
ATTACTCA	0.0751

Sequence	binding signal (normalized occupancy)
CGCGGATA	0.0752
ACACCGAC	0.0774
GCAGGTGA	0.0851
CCTCCTAG	0.076
AAGTCAGG	0.0719
CCAAGCTC	0.0702
CTTGTCAC	0.0759
TATGAGCA	0.0821
AGTGATAT	0.0824
CGAAGTGA	0.0702
ACACGTGG	0.852
AATAGCCT	0.0775
AAGTGCAG	0.0763
GGTAGAAC	0.071
GCGACTAA	0.0635
ACGGCTAT	0.0724
ATAAGGGA	0.0753
AACTTGCT	0.074
AGGGTAGC	0.0747
ATGGAGCC	0.0767
CTGTAGAC	0.0726
GACAACCC	0.076
CAGTCTCA	0.0706
CCTATCCA	0.0806
CTGGGCTA	0.0669

Sequence	binding signal (normalized occupancy)
AAAGAAGC	0.0715
AGTAGCCA	0.0714
CAACATGA	0.0936
AGCTGCGA	0.066
ATATAATC	0.0793
CTGACAGA	0.072
GGGGAGAC	0.0733
CCGACAGC	0.0716
AAATGTTA	0.0782
CTTCCACC	0.0766
CGTACACA	0.0813
ATCTTGTC	0.0785
GACCCCGC	0.0742
GAAGCGCC	0.0668
ATTTTAGA	0.0828
GGTAGCGA	0.0736
AAAGTTCT	0.0721
CATTGGCC	0.0721
ACGATGTG	0.0859
GTTTCAGA	0.071
ACGCAAAG	0.0808
CGGTAAAC	0.076
CGGCCGCC	0.0686
AAGAGCCA	0.0768
CATTCTCC	0.0814

Sequence	binding signal (normalized occupancy)
ATTCCATG	0.0878
CGAACACC	0.0747
CATGTGAG	0.128
ACGCCAGG	0.0747
TCTCCCCA	0.0783
GTTTTTCA	0.0726
ACGGTCAG	0.073
GCGCTGTA	0.077
GAGGCACA	0.0779
AGATCGCG	0.0698
ATTTAGAC	0.0724
GCTGTGGA	0.0728
CAAGTTCA	0.0741
TCCCGTCA	0.0716
CGTTGGGA	0.0779
GGTCTCAA	0.0745
CAATAACA	0.0785
AAACGCGT	0.08
CGCTAAAG	0.0673
AGTAGTGA	0.0756
ATCGTGAA	0.0769
GAGTTTCA	0.0703
CGCATCCA	0.077
GCATTAGC	0.0727
AATGTAAG	0.0879

Sequence	binding signal (normalized occupancy)
CACGGAGG	0.0714
ATCATAAC	0.0857
CATCCTTA	0.0814
AGTCAACA	0.0779
TCCACGAA	0.0784
TAAAGTTA	0.0709
CCAATTCA	0.0744
TAAAATTA	0.069
CGCGCCAA	0.0707
CATGACCC	0.0876
TAGTTTCA	0.074
ACGGGTCA	0.0744
ACTCTGGA	0.0708
AATTGGTG	0.075
CATCAGCA	0.0809
CGCGCTGC	0.0805
CATTGAAA	0.0742
AACGAATA	0.0759
AAATAAAT	0.0721
GCTCTCAA	0.0735
GGAGTCGA	0.0715
ACATGGAG	0.0868
CACGGACC	0.0751
AGGTGAGG	0.0742
GGCATTAA	0.0712

Sequence	binding signal (normalized occupancy)
GCAAGTGC	0.0726
ATCCTGGC	0.0676
CTTTAATA	0.0772
GGCGAACC	0.0697
GAAGGATC	0.0758
GGCCCTCA	0.0741
AAGGTGGC	0.0758
ACTATTAA	0.0742
CTGGATCC	0.0727
ATCCGGTC	0.072
CCTTATCC	0.0692
AAGTTTTC	0.0668
ATAAGGAC	0.075
ACTTAAAA	0.0709
AGCTGAAA	0.0723
ATCTATTG	0.078
GAGTACTA	0.074
AATACAAA	0.0785
AACCTCTG	0.0733
